# Results published in the supplement of paper PMC8728848.
# This is one part of the list.
# Experiments:
# Experiment in all cases: glycan array binding signal (z-score within array); higher = stronger binding
# Conditions in all cases: glycan notation: IUPAC condensed, linker removed
# [1] = biological target: Gal(a1-3)Gal(b1-4)GlcNAc(b1-2)Man
# How it was run: (§1)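 Glycan array data were curated from 3228 arrays in the Consortium for Functional Glycomics database and kept only where the protein sequence was available. Glycan names were converted to IUPAC-condensed notation, and columns mapping to the same glycan were averaged. The binding signal is a within-array Z-score, averaged across arrays of the same protein sequence at different concentrations or buffers and across linkers. Negative Z-scores can be read as non-binding.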
# [2] = biological target: Gal(a1-3)Gal(b1-4)GlcNAc(b1-2)Man(a1-3)[Gal(a1-3)Gal(b1-4)GlcNAc(b1-2)Man(a1-6)]Man(b1-4)GlcNAc(b1-4)GlcNAc
# How it was run: as §1
# [3] = biological target: Gal(a1-3)Gal(b1-4)GlcNAc(b1-3)GalNAc
# How it was run: as §1
# [4] = biological target: Gal(a1-3)Gal(b1-4)GlcNAc(b1-6)GalNAc
# How it was run: as §1
# [5] = biological target: Gal(a1-3)Gal(b1-4)[Fuc(a1-3)]GlcNAc
# How it was run: as §1
# [6] = biological target: Gal(a1-3)Gal(b1-4)[Fuc(a1-3)]GlcNAc(b1-2)Man(a1-3)[Gal(a1-3)Gal(b1-4)[Fuc(a1-3)]GlcNAc(b1-2)Man(a1-6)]Man(b1-4)GlcNAc(b1-4)GlcNAc
# How it was run: as §1
# Gal(a1-3)GalNAc = biological target: Gal(a1-3)GalNAc
# How it was run: as §1
# [7] = biological target: Gal(a1-3)[Gal(a1-4)]Gal(b1-4)GlcNAc
# How it was run: as §1
# [8] = biological target: Gal(a1-4)Gal(b1-3)GlcNAc(b1-2)Man(a1-3)[Gal(a1-4)Gal(b1-3)GlcNAc(b1-2)Man(a1-6)]Man(b1-4)GlcNAc(b1-4)GlcNAc
# How it was run: as §1
# Gal(a1-4)Gal(b1-4)Glc = biological target: Gal(a1-4)Gal(b1-4)Glc
# How it was run: as §1
# Gal(a1-4)Gal(b1-4)GlcNAc = biological target: Gal(a1-4)Gal(b1-4)GlcNAc
# How it was run: as §1
# [9] = biological target: Gal(a1-4)Gal(b1-4)GlcNAc(b1-2)Man(a1-3)[Gal(a1-4)Gal(b1-4)GlcNAc(b1-2)Man(a1-6)]Man(b1-4)GlcNAc(b1-4)GlcNAc
# How it was run: as §1
# [10] = biological target: Gal(a1-4)Gal(b1-4)GlcNAc(b1-3)Gal(b1-4)Glc
# How it was run: as §1
# Gal(a1-4)GlcNAc = biological target: Gal(a1-4)GlcNAc
# How it was run: as §1
# Gal(a1-6)Glc = biological target: Gal(a1-6)Glc
# How it was run: as §1
# Gal(b1-2)Gal = biological target: Gal(b1-2)Gal
# How it was run: as §1
# Gal(b1-3)Gal = biological target: Gal(b1-3)Gal
# How it was run: as §1
# Gal(b1-3)Gal(b1-4)GlcNAc = biological target: Gal(b1-3)Gal(b1-4)GlcNAc
# How it was run: as §1
# Gal(b1-3)GalNAc = biological target: Gal(b1-3)GalNAc
# How it was run: as §1
# [11] = biological target: Gal(b1-3)GalNAc(a1-3)[Fuc(a1-2)]Gal(b1-4)Glc
# How it was run: as §1
# [12] = biological target: Gal(b1-3)GalNAc(a1-3)[Fuc(a1-2)]Gal(b1-4)GlcNAc
# How it was run: as §1
# Gal(b1-3)GalNAc(b1-3)Gal = biological target: Gal(b1-3)GalNAc(b1-3)Gal
# How it was run: as §1
# [13] = biological target: Gal(b1-3)GalNAc(b1-3)Gal(a1-4)Gal(b1-4)Glc
# How it was run: as §1
# [14] = biological target: Gal(b1-3)GalNAc(b1-4)Gal(b1-4)Glc
# How it was run: as §1
# [15] = biological target: Gal(b1-3)GalNAc(b1-4)[Neu5Ac(a2-3)]Gal(b1-4)Glc
# How it was run: as §1
# Gal(b1-3)GlcNAc = biological target: Gal(b1-3)GlcNAc
# How it was run: as §1
# [16] = biological target: Gal(b1-3)GlcNAc(a1-3)Gal(b1-4)GlcNAc
# How it was run: as §1
# [17] = biological target: Gal(b1-3)GlcNAc(a1-6)Gal(b1-4)GlcNAc
# How it was run: as §1
# Gal(b1-3)GlcNAc(b1-2)Man = biological target: Gal(b1-3)GlcNAc(b1-2)Man
# How it was run: as §1
# [18] = biological target: Gal(b1-3)GlcNAc(b1-2)Man(a1-3)[Gal(b1-3)GlcNAc(b1-2)Man(a1-6)]Man(b1-4)GlcNAc(b1-4)GlcNAc
# How it was run: as §1
# [19] = biological target: Gal(b1-3)GlcNAc(b1-2)Man(a1-3)[Gal(b1-3)GlcNAc(b1-2)Man(a1-6)]Man(b1-4)GlcNAc(b1-4)[Fuc(a1-6)]GlcNAc
# How it was run: as §1
# [20] = biological target: Gal(b1-3)GlcNAc(b1-2)Man(a1-3)[GlcNAc(b1-4)][Gal(b1-3)GlcNAc(b1-2)Man(a1-6)]Man(b1-4)GlcNAc(b1-4)GlcNAc
# How it was run: as §1
# [21] = biological target: Gal(b1-3)GlcNAc(b1-2)[Gal(b1-3)GlcNAc(b1-6)]Man(a1-6)[Gal(b1-3)GlcNAc(b1-2)Man(a1-3)]Man(b1-4)GlcNAc(b1-4)GlcNAc
# How it was run: as §1
# [22] = biological target: Gal(b1-3)GlcNAc(b1-3)Gal(b1-3)GlcNAc
# How it was run: as §1
# [23] = biological target: Gal(b1-3)GlcNAc(b1-3)Gal(b1-4)Glc
# How it was run: as §1
# [24] = biological target: Gal(b1-3)GlcNAc(b1-3)Gal(b1-4)GlcNAc
# How it was run: as §1
# [25] = biological target: Gal(b1-3)GlcNAc(b1-3)Gal(b1-4)GlcNAc(b1-2)Man(a1-3)[Gal(b1-3)GlcNAc(b1-3)Gal(b1-4)GlcNAc(b1-2)Man(a1-6)]Man(b1-4)GlcNAc(b1-4)GlcNAc
# How it was run: as §1
# [26] = biological target: Gal(b1-3)GlcNAc(b1-3)Gal(b1-4)GlcNAc(b1-2)[Gal(b1-3)GlcNAc(b1-3)Gal(b1-4)GlcNAc(b1-6)]Man(a1-6)[Gal(b1-3)GlcNAc(b1-3)Gal(b1-4)GlcNAc(b1-2)Man(a1-3)]Man(b1-4)GlcNAc(b1-4)[Fuc(a1-6)]GlcNAc
# How it was run: as §1
# [27] = biological target: Gal(b1-3)GlcNAc(b1-3)Gal(b1-4)GlcNAc(b1-3)Gal(b1-4)GlcNAc(b1-2)[Gal(b1-3)GlcNAc(b1-3)Gal(b1-4)GlcNAc(b1-3)Gal(b1-4)GlcNAc(b1-6)]Man(a1-6)[Gal(b1-3)GlcNAc(b1-3)Gal(b1-4)GlcNAc(b1-3)Gal(b1-4)GlcNAc(b1-2)Man(a1-3)]Man(b1-4)GlcNAc(b1-4)[Fuc(a1-6)]GlcNAc
# How it was run: as §1
# [28] = biological target: Gal(b1-3)GlcNAc(b1-3)Gal(b1-4)GlcNAc(b1-6)[Gal(b1-3)GlcNAc(b1-3)]Gal(b1-4)Glc
# How it was run: as §1
# [29] = biological target: Gal(b1-3)GlcNAc(b1-3)Gal(b1-4)[Fuc(a1-3)]GlcNAc
# How it was run: as §1
# [30] = biological target: Gal(b1-3)GlcNAc(b1-3)Gal(b1-4)[Fuc(a1-3)]GlcNAc(b1-6)[Gal(b1-3)GlcNAc(b1-3)]Gal(b1-4)Glc
# How it was run: as §1
# [31] = biological target: Gal(b1-3)GlcNAc(b1-3)GalNAc
# How it was run: as §1
# [32] = biological target: Gal(b1-3)GlcNAc(b1-6)Gal(b1-4)GlcNAc
# How it was run: as §1
# [33] = biological target: Gal(b1-3)GlcNAc(b1-6)GalNAc
# How it was run: as §1
binder,measurement,setting,value
rCnSL-proB (Clitocybe nebularis) (protein) PTFSPIFALLAFLPFGTLASLLPQTQLVFRINPNLPGPNDVFVGYRGTNNVVGAIYERDGIKDTPMNNGADAELGPGSYITDDLFTAQIFASGSAGNNPGTTATVCKIYADGVQWRGAPKGYLPVLYFGNGQAAEQTRQTYLQGLDIPGTAIRFANLAKTPNQGPTAPRQMVVPSGGLQTLLKASCFPANHAALPQVLSYFNVRAALPPGWNIRTGPEFPNWTN,glycan array binding signal (z-score),[1],0.01
same,glycan array binding signal (z-score),[2],0.78
same,glycan array binding signal (z-score),[3],-0.395
same,glycan array binding signal (z-score),[4],-0.496
same,glycan array binding signal (z-score),[5],-0.354
same,glycan array binding signal (z-score),[6],3.18
same,glycan array binding signal (z-score),Gal(a1-3)GalNAc,-0.678
same,glycan array binding signal (z-score),[7],-0.363
same,glycan array binding signal (z-score),[8],0.571
same,glycan array binding signal (z-score),Gal(a1-4)Gal(b1-4)Glc,-0.285
same,glycan array binding signal (z-score),Gal(a1-4)Gal(b1-4)GlcNAc,-0.684
same,glycan array binding signal (z-score),[9],2.48
same,glycan array binding signal (z-score),[10],-0.611
same,glycan array binding signal (z-score),Gal(a1-4)GlcNAc,-0.681
same,glycan array binding signal (z-score),Gal(a1-6)Glc,-0.587
same,glycan array binding signal (z-score),Gal(b1-2)Gal,0.126
same,glycan array binding signal (z-score),Gal(b1-3)Gal,0.217
same,glycan array binding signal (z-score),Gal(b1-3)Gal(b1-4)GlcNAc,-0.603
same,glycan array binding signal (z-score),Gal(b1-3)GalNAc,-0.544
same,glycan array binding signal (z-score),[11],0.126
same,glycan array binding signal (z-score),[12],-0.607
same,glycan array binding signal (z-score),Gal(b1-3)GalNAc(b1-3)Gal,-0.333
same,glycan array binding signal (z-score),[13],-0.085
same,glycan array binding signal (z-score),[14],-0.19
same,glycan array binding signal (z-score),[15],-0.303
same,glycan array binding signal (z-score),Gal(b1-3)GlcNAc,-0.192
same,glycan array binding signal (z-score),[16],1.66
same,glycan array binding signal (z-score),[17],-0.071
same,glycan array binding signal (z-score),Gal(b1-3)GlcNAc(b1-2)Man,0.301
same,glycan array binding signal (z-score),[18],0.626
same,glycan array binding signal (z-score),[19],-0.42
same,glycan array binding signal (z-score),[20],0.778
same,glycan array binding signal (z-score),[21],2
same,glycan array binding signal (z-score),[22],-0.073
same,glycan array binding signal (z-score),[23],-0.509
same,glycan array binding signal (z-score),[24],0.517
same,glycan array binding signal (z-score),[25],3.58
same,glycan array binding signal (z-score),[26],0.414
same,glycan array binding signal (z-score),[27],0.308
same,glycan array binding signal (z-score),[28],0.635
same,glycan array binding signal (z-score),[29],-0.098
same,glycan array binding signal (z-score),[30],1.43
same,glycan array binding signal (z-score),[31],-1.39
same,glycan array binding signal (z-score),[32],-0.111
same,glycan array binding signal (z-score),[33],-0.04
